Results: PubChem BioAssay AID1347073 (National Center for Advancing Translational Sciences (NCATS), 2019)
About 200 (0.44%) of roughly 45,000 compounds were called active. Another 7% or so got no clear call; they are omitted. The call rests on the fitted dose curve; in most records, active means well fitted activation curve with a large enough effect; inconclusive means small, poorly fitted or top-dose-only effect; inactive means no such curve, though single readings can be large or run the other way. The list shows a part of the results.

Assay: qHTS of TDP-43 Inhibitors: NCGC Sytravon Library Screen; further: 0% is about no effect; nearly all actives have a fitted effect of over 55% in size
Conditions: yeast TDP-43 toxicity rescue, BacTiter-Glo growth, 24 h; series mostly up to 46.1 µM; growth rescue (activation): at the top concentration
Procedure, shortened: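 TDP-43-expressing yeast, pregrown in raffinose, seeded at OD600 0.02 in galactose medium with compound for 24 hr at 30 deg C. Growth read by BacTiter-Glo luminescence, so rescue of toxicity appears as activation.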

| SMILES | growth rescue (activation) |
| --- | --- |
| Cc1cccc(N2CCN(C(=O)C3CCN(S(=O)(=O)N4CCOCC4)CC3)CC2)c1C | inactive: 15.5% |
| COc1ccc([N+](=O)[O-])cc1NC(=O)c1ccc(N2C(=O)CCC2=O)cc1 | inactive: -19.3% |
| Cc1nnc(NC(=O)CSc2nnc3ncccn23)s1 | inactive: -12% |
| Cn1nc(-c2ccc(OCC(=O)NCC3CCCO3)cc2)c2ccccc2c1=O (stereo not drawn) | inactive: 10.8% |
| C/C(=N\NC(=O)COc1ccc(C)cc1C(C)C)c1cc2ccccc2o1 | inactive: 5.65% |
| CSCCC(NS(=O)(=O)c1ccc2c(c1)Cc1cc(S(=O)(=O)NC(CCSC)C(=O)O)ccc1-2)C(=O)O (stereo not drawn) | inactive: 2.32% |
| O=C(O)c1ccc2c(=O)n3c(nc2c1)/C(=C/c1cccc(Cl)c1Cl)CC3 | inactive: -9.99% |
| CC(C)Cc1nnc(NC(=O)CSc2nc(-c3ccccc3)cc(=O)[nH]2)s1 | inactive: 18.1% |
| Nc1nonc1-n1nnc(C(=O)N/N=C/c2ccco2)c1-c1ccccc1 | inactive: 3.95% |
| Cc1ccc(C(C(=O)NCc2ccccc2)N(C(=O)c2ccccn2)c2ccccc2)o1 (stereo not drawn) | inactive: -18.9% |
| O=C(C1CCN(Cc2ccc(Cl)cc2)CC1)N1CCN(Cc2ccc3c(c2)OCO3)CC1 | inactive: 14.4% |
| O=C(CCn1c2c(c3ccccc31)CCCC2)NNC(=O)c1ccccc1Cl | inactive: 8.71% |
| CN=c1scc(-c2cccs2)n1/N=C/c1ccc(O)c(O)c1O | inactive: -52.3% |
| CC1Cc2ccccc2N1S(=O)(=O)c1cccc(C(=O)NCc2ccco2)c1 (stereo not drawn) | inactive: 6.19% |
| CCc1ccc(CCC(=O)Nc2ncc(Cc3ccccc3Cl)s2)o1 | inactive: 12.5% |
| CCc1ccc(N(C(=O)c2csnn2)C(C(=O)NC(C)(C)C)c2ccccn2)cc1 (stereo not drawn) | inactive: 1.69% |
| Cc1ccc(NC(=O)c2ccc(CNc3c(N4CCC(C)CC4)c(=O)c3=O)cc2)cc1 | inactive: 30.4% |
| O=S(=O)(c1ccc(=S)[nH]c1)N1CCN(Cc2ccccc2)CC1 | inactive: 0.771% |
| CC1CCCC(C)N1C(=O)Cn1cc(C#N)c2ccccc21 (stereo not drawn) | inactive: -5.49% |
| Cc1ccc(CN2C(=O)C(F)(F)Oc3ccc(C)cc32)cc1 | inactive: 1.84% |
| COC(=O)Cn1c(Cc2ccccc2)nc2ccccc21 | inactive: -3.54% |
| CCN1C(=O)C(CC(=O)Nc2ccccc2)N(Cc2ccccn2)C1=S (stereo not drawn) | inactive: 18.1% |
| CCCCNC(=O)C1CCN(S(=O)(=O)N2CCOCC2)CC1 | inactive: 5.13% |
| O=C(COC(=O)c1cc(-c2cccs2)nn1-c1ccccc1)Nc1ccc(Cl)c([N+](=O)[O-])c1 | inactive: 16% |
| CC(C)Oc1ccc(-c2nc(NCC3CCCO3)c3ccccc3n2)cc1 (stereo not drawn) | inactive: 7.51% |
| COc1ccc(OCc2nnc(SCC(=O)NC3CC4CCC3C4)o2)cc1 (stereo not drawn) | inactive: 0.189% |

| SMILES | growth rescue (activation) |
| --- | --- |
| CCCCOc1ccc([N+](=O)[O-])cc1C(=O)O | inactive: -19.3% |
| NS(=O)(=O)c1ccc(NC(=O)COC(=O)c2cnccn2)cc1 | inactive: 5.01% |
| Cc1ccc(S(=O)(=O)N2CCN(C(=O)Cn3c(=O)cnc4ccccc43)CC2)c(C)c1 | inactive: 38.5% |
| CNc1ccc2ncc(-c3ccccc3NC(C)=O)n2n1 | inactive: 0.109% |
| O=C(Nc1c(C(=O)C2CC2)oc2ccccc12)c1ccc(Cl)cc1 | inactive: -12% |
| CC(=O)Nc1ccccc1C(=O)C(=O)Nc1ccccc1 | inactive: 18% |
| CCC1CCC(C(=O)NC(C(=O)NCCCN2CCCCC2C)C(C)C)CC1 (stereo not drawn) | inactive: 1.18% |
| COc1ccc(CC(=O)Nc2nc(-c3ccc(F)c(F)c3)cs2)cc1 | inactive: 19.3% |
| Cn1ccnc1SCc1cccc([N+](=O)[O-])c1 | inactive: -6.73% |
| CN(CCNC(=O)CN1C(=O)CSc2ccc(S(=O)(=O)N3CCCC3)cc21)Cc1ccccc1 | inactive: -4.77% |
| COc1ccc(-c2nc3ccccn3c2/N=C/c2ccc(OC)c(OC)c2)cc1O | inactive: 7.26% |
| CCCC(=O)N1CCCC(c2nc(-c3cccc(OC)c3)no2)C1 (stereo not drawn) | inactive: 10.5% |
| COc1cc(NC(=S)NCc2ccco2)cc(OC)c1OC | inactive: 6.67% |
| CS(=O)(=O)N(CC(=O)NCc1ccc2c(c1)OCO2)c1cccc(Cl)c1 | inactive: 2.76% |
| Cn1c(COc2ccccc2)nc2ccccc21 | inactive: 11.4% |
| OCCN1CCN(CC(O)COc2ccc(Cl)cc2)CC1 (stereo not drawn) | inactive: -18.3% |
| CC1CN(S(=O)(=O)N2CCOCC2)CCN1S(=O)(=O)N1CCOCC1 (stereo not drawn) | inactive: -6.25% |
| Cc1ccc(NS(=O)(=O)c2ccc(Br)cc2)nc1 | inactive: -22% |
| CC(=O)Oc1ccc(/C=C2/SC(=S)N(Cc3ccccc3)C2=O)cc1 | inactive: -8.94% |
| Cc1ccc([N+](=O)[O-])cc1N(CC(=O)NCC1CCCO1)S(C)(=O)=O (stereo not drawn) | inactive: -9.42% |
| NS(=O)(=O)c1ccc(CCNC(=O)CSc2nc3ccsc3c(=O)n2CCCCCC(=O)O)cc1 | inactive: -6.38% |
| COc1ccc(CCCc2nnc(SCc3nc4ccccc4c(=O)[nH]3)n2C)cc1C | inactive: -12.6% |
| COc1ccccc1NC(=O)NNC(=O)c1ccc2c(c1)NC(=O)C(C)(C)O2 | inactive: -27.2% |
| CCN(C(=O)c1ccc2c(=O)n3c(nc2c1)CCCCC3)c1cc(C)ccc1C | inactive: 6.58% |
| COc1ccc(/C=N/NC(=O)c2ccc(O)cc2O)cc1CSc1ccccn1 | inactive: 11.1% |
| Cc1ccc(C2=NNC(C(O)C(O)C(O)CO)S2)cc1 (stereo not drawn) | inactive: 4.23% |

| SMILES | growth rescue (activation) |
| --- | --- |
| COc1ccccc1CNCC(=O)Nc1cc(S(=O)(=O)N2CCCCCC2)ccc1Cl | inactive: -4.94% |
| CC(=O)c1cc(-c2ccccc2)n(CCC(=O)NC2CCCCCC2)c1C | inactive: -13.7% |
| COc1ccccc1N1CCN(S(=O)(=O)c2c(C)sc3ncn(CC(=O)NCCN(C)C)c(=O)c23)CC1 | inactive: 5.14% |
| Cc1cccc(NC(=O)C2CCN(C(=O)c3ccco3)CC2)c1C | inactive: -11% |
| CCC(c1nnnn1Cc1ccco1)N(Cc1cc2cc(OC)ccc2[nH]c1=O)C1CCCCC1 (stereo not drawn) | inactive: 16.1% |
| COc1ccc(C(=O)Nc2ccc(NC(=O)c3cccc(F)c3)cn2)cc1 | inactive: -9.39% |
| CC(C)(C)NC(=O)C(c1ccccc1)N(C(=O)CNC(=O)c1cccs1)c1cccnc1 (stereo not drawn) | inactive: 14.2% |
| O=C(CSc1nc2c(c(=O)[nH]1)CCC2)Nc1cccc(F)c1 | inactive: 11.4% |
| CC(C)(C)C(=O)Nc1ccc(-c2nc3ccccc3c(=O)o2)cc1 | inactive: 5.55% |
| CN(C)c1nc(SCC(=O)Nc2ccc(Cl)c(Cl)c2)nc(N2CCOCC2)n1 | inactive: 21.2% |
| CCN(CC)C(=O)c1sc2nc(-c3cccs3)cc(-c3ccc(Cl)cc3)c2c1N | inactive: 38.8% |
| COc1ccc(C2C([N+](=O)[O-])=C(C)N(C)C(=O)N2C)cc1OC (stereo not drawn) | inactive: 1.28% |
| CN1CCN(C(=O)c2cc(C(C)(C)C)cc(C(C)(C)C)c2)CC1 | inactive: 2.78% |
| O=C(CNS(=O)(=O)c1cccc(C(F)(F)F)c1)NC1CCCCCC1 | inactive: 3.89% |
| CCC(=O)Nc1ccccc1N1CCN(c2ccc(F)cc2)CC1 | inactive: 3.61% |
| CCn1c(CC(=O)Nc2ccccc2C)nnc1SCC(=O)NC1CCCC1 | inactive: 3.21% |
| CN(C)C(C)(C)/C=C/C(O)(c1ccccc1)c1ccccc1 | inactive: 5.79% |
| COc1cccc(CNC(=O)CCC2CCCN(Cc3cc4ccccc4o3)C2)c1 (stereo not drawn) | inactive: 6.55% |
| O=C(Nc1ccccc1C(F)(F)F)N1CCC2(CC1)Oc1ccccc1C(=O)N2Cc1ccccc1F | inactive: 0.962% |
| COc1ccc(-c2nnc(NC(=O)CSc3ccccc3)s2)cc1OC | inactive: -25.9% |
| Cc1ccc(CN2CCN(Cc3cccn3-c3ccc(Cl)cn3)CC2CCO)o1 (stereo not drawn) | inactive: 2.19% |
| Cc1ccc(S(=O)(=O)N2CCN(Cc3ccco3)CC2)c(C)c1 | inactive: 16.7% |
| COc1ccc(CN(C)C(=O)CC(c2ccccc2)c2ccccc2)cc1 | inactive: 13% |
| CCOc1cc2[nH]c(=S)n(Cc3ccc(C(=O)NCCN(CC)CC)cc3)c(=O)c2cc1OCC | inactive: 15.9% |
| OCC1(Cc2ccccc2)CCCN(Cc2cn[nH]c2-c2ccccc2)C1 (stereo not drawn) | inactive: -27.2% |
| CC(C)c1ccc(S(=O)(=O)N2CCN(C(=O)CN3C(=O)c4ccccc4C3=O)CC2)cc1 | inactive: 13.3% |

| SMILES | growth rescue (activation) |
| --- | --- |
| COc1ccc(C(=O)CSc2n[nH]c(C)n2)cc1[N+](=O)[O-] | inactive: -4.25% |
| COc1ccc(NC(=O)Cc2c[nH]c3ccccc23)cc1S(=O)(=O)N1CCOCC1 | inactive: 26.7% |
| O=C(COC(=O)/C=C/c1cccc(F)c1)Nc1cccc(S(=O)(=O)NC2=NCCCCC2)c1 | inactive: 1.93% |
| O=C(N/N=C/c1ccc(Br)s1)c1ccco1 | inactive: 20.3% |
| O=C(N/N=C\c1ccc(CNS(=O)(=O)c2ccccc2)o1)C(=O)Nc1ccc(F)cc1 | inactive: 8.83% |
| O=[N+]([O-])c1c(Nc2ccccc2O)cc(Cl)c2nonc12 | inactive: -26.2% |
| Cc1ccc(S(=O)(=O)N2CCCCC2)cc1NC(=O)COC(=O)c1ccccc1F | inactive: 12.2% |
| Cc1cccc(NC(=O)Nc2c(C)n(C)n(-c3ccccc3)c2=O)c1 | inactive: -9.77% |
| Cc1c(NC(=O)CN2C(=O)NC(C)(c3ccc4c(c3)OCCO4)C2=O)c(=O)n(-c2ccccc2)n1C (stereo not drawn) | inactive: 1.39% |
| C/C(=N\NC(=O)c1cccnc1)c1nnn(-c2nonc2N)c1C | inactive: -1.04% |
| O=C(CSc1ccc(Cl)cc1)Nc1ccccc1N1CCN(C(=O)c2ccccc2)CC1 | inactive: 3.77% |
| O=c1cc(-c2ccc([N+](=O)[O-])cc2)nc2cc(-c3ccc(F)cc3)[nH]n12 | inactive: -12.1% |
| O=C(Cn1cccn1)N1CCCC(N2CCN(c3ccccc3F)CC2)C1 (stereo not drawn) | inactive: 7.21% |
| N/C(=N\N=C\c1ccc2c(c1)OCO2)SC1CC(=O)N(c2ccc(C(=O)O)cc2)C1=O (stereo not drawn) | inactive: 3.87% |
| CCc1cccc2c(C(=O)C(NCCOC)c3ccccc3)c[nH]c12 (stereo not drawn) | inactive: -1.01% |
| O=C(NC1CCCC1)c1cc(-c2ccccc2O)on1 | inactive: -3.95% |
| Cc1noc(C)c1COc1ccc(C(=O)NCc2cccs2)cc1 | inactive: 0.857% |
| Cc1ccccc1-n1c(C)cc(/C=C(\C#N)C(=O)NCC2CCCO2)c1C (stereo not drawn) | inactive: 23.6% |
| COc1ccc(OC)c(N/C=C/C(=O)c2ccccc2)c1 | inactive: -27% |
| CNS(=O)(=O)c1cc(NC(=O)c2cccc3cccnc23)ccc1C | inactive: 6.26% |
| COc1ccc(-c2cc(CNc3nc4cc(-c5ccccc5C)sc4c(=O)n3C)on2)cc1 | inactive: 5.85% |
| Cn1c(N)c(C(=O)COC(=O)COc2ccccc2Cl)c(=O)n(C)c1=O | inactive: 14.2% |
| COc1ccc(NC(=O)CCc2nc3ccccc3[nH]2)cc1 | inactive: 12.2% |
| Clc1cccc(-c2cc3nc(NCCOc4ccccc4)ccn3n2)c1 | inactive: -13% |
| N#C/C(=C/c1ccc(O)c([N+](=O)[O-])c1)C(=O)Nc1ccccc1 | inactive: -4.73% |
